The record followed here is the RNAGym collection of RNA variant scans (doi:10.1093/nar/gkz1192).

First the molecules themselves.
B1: CPEB3 Ribozyme (parent)
chain: UAACAGGGGGCCACAGCAGAAGCGUUCACGUCGCAGCCCCUGUCAGAUUCUGGUGAAUCUGCGAAUUCUGCUGUAUAUCUC

The source gives no read counts; variants with many changes may rest on few reads.

The variants in the series derive from B1. As to the kind of experiment: self-cleavage, relative activity (ratio to wild type); higher = more cleavage; in vitro, sequencing. The method, boiled down:
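For each CPEB3 ribozyme variant, relative activity is its cleaved/total read fraction divided by the unmutated ribozyme's. Barcoded error-prone PCR libraries were transcribed by T7 RNA polymerase (5 hours, 37°C) and held in DNase I for 15 min before an EDTA stop, with cleavage occurring throughout. Template-switching reverse transcription and Illumina sequencing were used to read the RNAs. A 5-read minimum applied, and results are the mean of three batches.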
Turning to UAACGGGGGGCCACAGCAGAAGCGUUCACGUCGCAGCCCCCGUCAGAUUCCGGUGAAUCAGCGAAUUCUGCUGUACAUCUC [A5G U41C U51C U60A U76C], the self-cleavage was 0.11.

In the case of UAACGGGGGGCCACAGCAGAAGCGUUCACGUCGCAGCCCCAGUCAGAUUCUGAUGAAUCUGUGAAUUCUGCUGUUUAUCCC [A5G U41A G53A C62U A75U U80C], the self-cleavage worked out at 0.11. The same measure for UAACGGGGGGCCACAGCAGAAGCGUUCACGCCGCAGCCCCUGUCUGAUUCUGGUGAAUCUGCGAAUUCAGCUGUAUAUCUC [A5G U31C A45U U69A]: 0.16; for UAACGGGGGGCCACAGCAGAAGCGUUCACGCCGCAGCCCCUGUCAGAUUCUGGUGAAUCUGCGAAUUCUGCUGUUUACCUC [A5G U31C A75U U78C]: 0.27; for UAACGGGGGGCCACAGCAGAAGCGUUCACGGCGCAGCCCCUGUCAGGUUCUGGUGAAUCUGCGAAUUCUGCUGCAUAUCUC [A5G U31G A47G U74C]: 0.27.

UAACGGGGGGCCACAGCAGAAGCGUUCACGACGCAGCCCCCGUUAGAUUCUGGUGAAUCUGCGAAUUCCGCUGUAUACCUC [A5G U31A U41C C44U U69C U78C]: the self-cleavage turned out to be 0.06. The same measure for UAACGGGGGGCCACAGCAGAAGCGUUCACGUCGCAGCCCCAGUCAGAUCCUGGUGAAUCUGCGUAUUCUGCUGUAUAUCUC [A5G U41A U49C A64U]: 0.16; for UAACGGGGGGCCACAGCAGAAGCGUUCACGCCGCAGCCCCUGUCAGAUUCUGGUGAAUCUGCGAAUUCUGCUGUAUACCUC [A5G U31C U78C]: 0.73.

With UAACGGGGGGCCACAGCAGAAGCGUUCACGCCGCAGCCCCUGCCAGAUUCGGGUGAAUCUGCGAAUUCUGCUGUAUAUCUC [A5G U31C U43C U51G], the self-cleavage worked out at 0.13. Consider UAACGGGGGGCCACAGCAGAAGCGUUCACGACGCAGCCCCUGUCAGAUUCUGGUGAAUCAGCGAAAUCUGCUGUAUAUCUC [A5G U31A U60A U66A], for which the self-cleavage turned out to be 0.31. The same measure for UAACGGGGGGCCACAGCAGAAGCGUUCACGCCGCAGCCCCUGUCAGAUUCUGGUGAAUCUGCGAAUUCUGCUGUAUAUAUC [A5G U31C C79A]: 0.83; for UAACGGGGGGCCACAGCAGAAGCGUUCACGUCGCAGCCCCCGUCAGAUCCUGGUGAACCAGCGAACUCUGCAGUAUAUCUC [A5G U41C U49C U58C U60A U66C U72A]: 0.1; for UAACGGGGGGCCACAGCAGAAGCGUUCACGCCGCAGCACCUGUCAGACCCCGGUGAAUCUGCGAAUUCUGCUGUAUAUCUC [A5G U31C C38A U48C U49C U51C]: 0.14.

Turning to UAACGGGGGGCCACAGCAGAAGCGUUCACGUCGCAGCCCCCGUCAGAUUCUGGUGAUUCUGCGAAUUCUGCUGUAUAUCUC [A5G U41C A57U], the self-cleavage stood at 0.3. Under UAACGGGGGGCCACAGCAGAAGCGUUCACGCCGCAGCCCCUGUCAGAUUCUGGUGAAUCCGCGGAUUCUGCUGUAUAUCUC [A5G U31C U60C A64G] stands 0.08; under UAACGGGGGGCCACAGCAGAAGCGUUCACGUCGCAGCCCCGGUCAGAUUCAGGUGAAUCUGCGAAUUCUGCUGUUUAUCUC [A5G U41G U51A A75U], 0.62. Under UAACGGGGGGCCACAGCAGAAGCGUUCACGACGCAGCACCUGUCUGAUUCUGGUGAAUCCGCGAAUUCUGCUGUAUACCUC [A5G U31A C38A A45U U60C U78C] stands 0.08; under UAACGGGGGGCCACAGCAGAAGCGUUCACGCCGCGGCCCCCGUCAGAUUCUGGUGAAUCUGCGAAUUCUGCAGUAUAUCUC [A5G U31C A35G U41C U72A], 0.36; under UAACGGGGGGCCACAGCAGAAGCGUUCACGCCGCAGCCCCUGUCGGAUUCUGGUGAAUCUGCGAAUUCUGCUGCAUAUCUC [A5G U31C A45G U74C], 0.7. Under UAACGGGGGGCCACAGCAGAAGCGUUCACGUCGCAGCCCCAGUCAGAUUCCGGUGAAUCAGCGAAUUCUGCUGUAUAUCUC [A5G U41A U51C U60A] stands 0.12; under UAACGGGGGGCCACAGCAGAAGCGUUCACGCCGCAGCCCCUGUCAGAUUCUGGUGAAUCUACGAAUUCUGCUGUAUAUCUC [A5G U31C G61A], 0.3.

On to UAACGGGGGGCCACAGCAGAAGCGUUCACGUCGCAGCCCCCGUCAGAUUCUGGUGAAUCUGCGAAUUCUGCAGUAUAUCUC [A5G U41C U72A], for which the self-cleavage worked out at 0.33.

As for UAACGGGGGGCCACAGCAGAAGCGUUCACGACGCAGCCCCUGUCAGAUCCUGGUGAAUCUGCGAAUUCUGCAGUAUAUCCC [A5G U31A U49C U72A U80C], the self-cleavage amounted to 0.11. Turning to UAACGGGGGGCCACAGCAGAAGCGUUCACGUCGCAGCCCCGGUCAGAUUCUGGUGAAUCUACGGAUUCUGCUGUAUAUCUC [A5G U41G G61A A64G], the self-cleavage turned out to be 0.22. Under UAACGGGGGGCCACAGCAGAAGCGUUCACGACGCAGCCCCUGCCAGAUUCUGGUGAAUCUGCGAAUUCUGCUGUUUAUCUC [A5G U31A U43C A75U] stands 0.7; under UAACGGGGGGCCACAGCAGAAGCGUUCACGCCGCAGCCCCUGUCAGAUUCUGGUGAAUCUGCGAAUUCUGCUGUACAUCUC [A5G U31C U76C], 0.62; under UAACGGGGGGCCACAGCAGAAGCGUUCACGGCGCAGCCCCUGUCGGGUUCAGGUGAAUCUGCAAAUUCUGCUGUAUAUCUC [A5G U31G A45G A47G U51A G63A], 0.13. For the variant UAACGGGGGGCCACAGCAGAAGCGUUCACGCCGCAGCCCCUGUCAGAUUCUGGUGAAUCCGCGAAUUCUGCUGUAUAUCUC [A5G U31C U60C], the self-cleavage turned out to be 0.36. The same measure for UAACGGGGGGCCACAGCAGAAGCGUUCACGACGCAGCCCCUGUCAGAUUCUGGUGGAUCUGCGAAUUCUGCUGUAUAUCAC [A5G U31A A56G U80A]: 0.49; for UAACGGGGGGCCACAGCAGAAGCGUUCACGUCGCAGCCCCAGUCGGAUUCUGGUGGAUCUGCGAAUUCUGCUGUAUACCUC [A5G U41A A45G A56G U78C]: 0.08. The same measure for UAACGGGGGGCCACAGCAGAAGCGUUCACGCCGCAGCCCCAGUCGGAUUCUGGUGAAUCUGGGUAUUCUGCUGUAUAUCUC [A5G U31C U41A A45G C62G A64U]: 0.35; for UAACGGGGGGCCACAGCAGAAGCGUUCACGUCGCAGCCCCAGUCAGAUUCAGGUGACUCUGCGAAUUCUGCUGUAUAUCUC [A5G U41A U51A A57C]: 0.09. Under UAACGGGGGGCCACAGCAGAAGCGUUCACGUCGCAGCCCCAGUCCGAUUCUGGUGAAUCUGCGAAUUCUGCUAUAUAUCUC [A5G U41A A45C G73A] stands 0.6; under UAACGGGGGGCCACAGCAGAAGCGUUCACGCCGCAGCCCUUGUCAGAUUCUGGUGAAACUGCGAAUUCUGCAGUGUAUCUC [A5G U31C C40U U58A U72A A75G], 0.28.
